Among all 310,000 compounds or so, about 2,200 (0.71%) showed an effect of 50% or more. Effects have a minus sign here. The list shows a part of the results.
Target: human ether-à-go-go-related gene (hERG) potassium channel (human, UniProt Q12809)
Assay: primary screen, population patch clamp on CHO cells stably expressing hERG

Chain of human ether-à-go-go-related gene (hERG) potassium channel (Q12809 whole entry, looked up): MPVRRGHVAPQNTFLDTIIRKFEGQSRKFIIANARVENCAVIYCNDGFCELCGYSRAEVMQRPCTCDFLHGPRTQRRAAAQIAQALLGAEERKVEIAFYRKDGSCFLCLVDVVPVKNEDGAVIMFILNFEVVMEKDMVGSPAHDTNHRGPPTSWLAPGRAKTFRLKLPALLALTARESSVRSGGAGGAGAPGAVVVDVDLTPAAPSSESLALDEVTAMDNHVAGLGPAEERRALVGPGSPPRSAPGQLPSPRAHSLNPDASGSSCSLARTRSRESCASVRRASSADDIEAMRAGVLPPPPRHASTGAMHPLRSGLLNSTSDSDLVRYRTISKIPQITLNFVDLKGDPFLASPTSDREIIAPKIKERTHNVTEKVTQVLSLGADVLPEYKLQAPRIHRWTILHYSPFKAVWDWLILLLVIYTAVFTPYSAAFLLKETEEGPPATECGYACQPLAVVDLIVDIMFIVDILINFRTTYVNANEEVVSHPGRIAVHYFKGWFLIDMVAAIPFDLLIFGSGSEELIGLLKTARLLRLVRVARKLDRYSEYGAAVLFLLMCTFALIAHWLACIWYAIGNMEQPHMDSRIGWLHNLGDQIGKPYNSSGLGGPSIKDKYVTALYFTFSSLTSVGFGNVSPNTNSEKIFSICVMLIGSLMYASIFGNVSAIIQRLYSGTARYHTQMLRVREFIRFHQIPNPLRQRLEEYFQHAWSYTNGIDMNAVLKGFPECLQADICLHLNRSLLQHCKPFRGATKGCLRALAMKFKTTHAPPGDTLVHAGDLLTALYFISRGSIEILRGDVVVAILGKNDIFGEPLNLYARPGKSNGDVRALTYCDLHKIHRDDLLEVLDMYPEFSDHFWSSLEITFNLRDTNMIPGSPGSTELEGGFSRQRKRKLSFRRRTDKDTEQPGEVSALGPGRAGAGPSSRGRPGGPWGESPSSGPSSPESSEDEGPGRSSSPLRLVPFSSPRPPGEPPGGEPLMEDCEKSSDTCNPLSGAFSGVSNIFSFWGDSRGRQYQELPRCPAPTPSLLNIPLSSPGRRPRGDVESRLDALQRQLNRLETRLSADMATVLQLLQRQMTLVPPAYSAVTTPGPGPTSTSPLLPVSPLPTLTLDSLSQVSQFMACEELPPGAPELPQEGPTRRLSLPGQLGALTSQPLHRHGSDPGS

SMILES | hERG current change (%, negative = inhibition) at 1uM [%]
COc1ccc(N2CC(C(=O)Nc3c4c(nn3-c3ccccc3)CS(=O)(=O)C4)CC2=O)cc1 (stereo not shown) | 8.24
Cc1ccc(Nc2nnc(SCC(=O)Nc3ccc(S(=O)(=O)N4CCOCC4)cc3)s2)cc1 | 1.69
COc1ccc(CCN2CC(C(=O)NCCc3cccnc3)CCC2=O)cc1 (stereo not shown) | 6.4
CCOc1ccc(CNC(=O)CCS(=O)(=O)c2ccc3c(c2)NC(=O)CO3)cc1OC | 21.2
Cc1nc2ccccc2c2oc(C(=O)NCCN3CCN(C)CC3)cc12 | 12.3
O=C(C(c1ccccc1)c1ccccc1)N1CC[C@@]2(O)CCCC[C@H]2C1 | 7.6
COc1ccc2c(c1)-c1nc(/N=C/c3ccc(O)c(OC)c3)sc1CC2 | 6.84
Cc1ccc(NC(=O)Cc2n[nH]c(=O)c3ccccc23)cc1S(=O)(=O)N1CCCCCC1 | -2.11
CCOC(=O)c1c(C)nc(C)c(C(=O)OCC)c1-c1ccc(OC)cc1 | -5.86
COc1ccc(N2C(=O)CC(Sc3nc(C)c4c(n3)CCCC4)C2=O)cc1 (stereo not shown) | 4.9
CN=C(NC1CCCCC1)c1ccc([N+](=O)[O-])cc1 | 11.1
Cc1c(OCC(=O)NCCCn2ccnc2)ccc2c3c(c(=O)oc12)CCC3 | 5.67
Cc1snc(SCC(=O)N/N=C(\N)COc2cccc(C(F)(F)F)c2)c1C#N | -1.46
COc1ccc(N(CC(=O)NN=C2CCCCCCC2)S(=O)(=O)c2ccccc2)cc1 | 0.301
Cc1cc(N)ccc1NC(=O)CN1CCCC1 | 14.2
Cc1c(NC(=O)c2cnn3cccnc23)c(=O)n(-c2ccccc2)n1C | 9.72
COCC(C)n1c(SCC(=O)NC(=O)Nc2ccc3c(c2)OCCO3)nc2ccccc2c1=O (stereo not shown) | 11
CCN1CCN(S(=O)(=O)c2cc(C(=O)O)ccc2Cl)CC1.Cl | 0.0093
C[C@H](NC(=O)NCCc1ccccc1)C(=O)O | -1.24
O=C(Cn1cnnn1)Nc1ccccc1Cc1ccccc1 | 10.5
COc1ccc(C2=NOC(Cn3nc(C(=O)NCc4ccc(C)cc4)cc3-c3ccccc3)C2)cc1 (stereo not shown) | 9.54
Cc1ccc(CNC(=O)CCS(=O)(=O)c2ccc3c(c2)CC(C)N3C(=O)C2CC2)cc1 (stereo not shown) | 0.306

SMILES | hERG current change (%, negative = inhibition) at 1uM [%]
CCCN1C(=O)C(O)(CC(=O)c2ccc3c(c2)OCCO3)c2ccccc21 (stereo not shown) | 5.63
COc1cccc(CNS(=O)(=O)c2csc(C(N)=O)c2)c1 | 28.9
Cc1cc(C=C2C(=O)N(C)C(=O)N(C)C2=O)c(C)n1-c1ccccc1 | 18.7
CC(Sc1nnc(N)s1)C(=O)NCc1ccc2c(c1)OCO2 (stereo not shown) | 12.3
O=C(Nc1ccc(Cl)cc1)N1CCSCC1 | 13.4
CSc1nc2c(ccc3ccccc32)o1 | 15.2
CCNC(=S)NNC(=O)c1ccccc1OC(F)F | 5.6
Cc1ccc(C)c(N2C(=O)CS/C2=N\NC(=O)c2ccccc2Cl)c1 | 7.21
CC(NC(=O)c1csc2ccccc12)C1CCCO1 (stereo not shown) | -5.8
Cc1ccc(C)c(OCCn2cc(/C=C(\C#N)C(=O)NCc3ccco3)c3ccccc32)c1 | 15.3
CC1CCCC(C)N1c1ccc(S(=O)(=O)N2CCOCC2)cc1Cl (stereo not shown) | 12.9
CC(C)CNS(=O)(=O)c1cc(C(=O)OCC(=O)N(C)C2CCS(=O)(=O)C2)c(Cl)cc1Cl (stereo not shown) | 3.94
COc1ccc(NC(=O)CN(C)CC(=O)Nc2cccc(S(=O)(=O)N(C)c3ccccc3)c2)cc1 | -3.64
Br.CCOC(=O)CN1C2=NCCN2c2ccccc21 | 15.4
CCc1nnc(NC(=O)c2ccc3ccccc3n2)s1 | 11.4
CCC(c1nnnn1CCOC)N1CCN(Cc2ccccc2OC)CC1.Cl (stereo not shown) | 8.37
CCN(C(=O)COC(=O)c1c(C)nn(-c2ccccc2)c1C)C1CCS(=O)(=O)C1 (stereo not shown) | 14.3
Cc1ccnc2nc(C(=O)N3CCN(c4ccc(F)cc4)CC3)nn12 | 0.718
Cc1ccc(S(=O)(=O)NCc2ccncc2)cc1 | 0.0707
Cn1cc(/C=C2/SC(=O)N(CC(=O)Nc3ccc4c(c3)OCO4)C2=O)c2ccccc21 | 7
CC1Sc2ccc(C(=O)O)cc2NC1=O (stereo not shown) | 27.9

Reference: publication PMC4336329 (PLoS ONE, 2015)
